Measurements published in publication PMC12136788.
The other results are listed elsewhere or left out.

T1: UNK ZnF1-3 (human, UniProt Q9C0B0 31-174)
T1 sequence: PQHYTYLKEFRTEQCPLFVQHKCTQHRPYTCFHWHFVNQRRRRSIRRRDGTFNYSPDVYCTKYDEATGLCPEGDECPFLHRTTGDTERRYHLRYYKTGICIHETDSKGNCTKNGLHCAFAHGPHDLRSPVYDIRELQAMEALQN

B1: 119461059_119461179_1228_CDS_ENSG00000119401_ENST00000373983|human|control|control (ssRNA)
RNA: GGGAGUUCUACAGUCCGACGAUCUAGUACUUCACCUUGACUGGUCACGUAGAGACUGACUGGAAGAUUGAACAUUCCUGGAGUGCUGCCUUUGGCCCCCAUCUUCUUGAGAAAGAGGCACUGCUGGAUAUUGGAGGCUGCCUCCAACAGAGGAUUGAGCAUCA
B2: chr9:95013113:95013114:-_ENSG00000196305_ENST00000443024|hu_hu|hu_hu_hu_mus_False|48_58 (ssRNA)
RNA: GGGAGUUCUACAGUCCGACGAUCCUCAGUCAGAAAGGGCGUGUAAGGGGCCAUCAGUCUGCACAGAGAAAGCAGGACACUAAACAAGGUUUCUAGGGCCAUGACACAGUCUUCCACCCCACUCUCACCCUUUAACCUCCUCCUCAACAGAGGAUUGAGCAUCA
B3: chr14:65392728:65392729:+_ENSG00000258289_ENST00000359118|hu_mus|motif|central (ssRNA)
RNA: GGGAGUUCUACAGUCCGACGAUCAUACUCGUGUCUGGCUACUACAUGAUGACAGUUCUUACACAGAUGGUCAUAGGUAACGGUUUCUUCUCCAUCUUCCUCUUUCAGGGAUCUGUUUGUGAUCAGCAUAAAGUCCCGCUUACUCAACAGAGGAUUGAGCAUCA
B4: chr16:92112057:92112058:+_ENSMUSG00000039680_ENSMUST00000047429|mus_mus|motif|central (ssRNA)
RNA: GGGAGUUCUACAGUCCGACGAUCGCCGUCACACUCUUUUACUUCCUGGGUCAGAGGGUGUUUCACAAUAUUUGGUCGGACCACGUCAAUGUCUCGCGCCAAGUGUUCCAGUAUGUUCUCCACAGCACUUGUCGGAGCAUAAAACAACAGAGGAUUGAGCAUCA
B5: chr2:61705333:61705334:-_ENSG00000082898_ENST00000401558|hu_mus|FALSE|FALSE (ssRNA)
RNA: GGGAGUUCUACAGUCCGACGAUCUCGACAAGCGACAGCACACACACACACACACAAACAAAAAGAACUGUGUAAAAAUAACUAACUGUUCCCAUAUUUUUGAAGUUGCUUUACAAUGGGAUGAUAUGCACAUGAUCUUGCUGCCAACAGAGGAUUGAGCAUCA
B6: 83009603_83012343_296_CDS_ENSMUSG00000034560_ENSMUST00000038388|mouse|control|control (ssRNA)
RNA: GGGAGUUCUACAGUCCGACGAUCCUUGUUUUCAGUCUUUAUGAGUUCCAAAAGGGAAGACUGCUCAUAGGGCAGAAGCUUUAAUGCUAUAGGAUCAAGAUUGAAAUCCCAAACAUCGCCAAUCAAAUCAUCUAGGGCGUCCUCCAACAGAGGAUUGAGCAUCA
B7: chr13:91842754:91842755:+_ENSMUSG00000003992_ENSMUST00000004094|mus_hu|FALSE|FALSE (ssRNA)
RNA: GGGAGUUCUACAGUCCGACGAUCAUAUGUUCAAUGCAGCAAGAAUUGCUGAUAUUAUUACUGUGAGAUGACGUGUAAAAAUAACACUAGGAACAGGUAGUAUACAUCAAGACCAACACGAAUGCAUUGAUAAAGAUGGAAAACCAACAGAGGAUUGAGCAUCA
B8: chr3:72423869:72423870:-_ENSG00000163602_ENST00000477973|hu_mus|motif|central (ssRNA)
RNA: GGGAGUUCUACAGUCCGACGAUCGCAGAAUUCAUAAAUAGACAUUUCUAUUUAAAGCAGGAAAAUGAUAAAGUGGCUUCGGAUAACAGUCGUGCACAUGCCAAUAACAGGAAUAUAUUAACAUCUUUUAUUUGCUAGACAAAGCAACAGAGGAUUGAGCAUCA
B9: chr13:49821539:49821540:+_ENSMUSG00000037851_ENSMUST00000165316|mus_mus|motif|central (ssRNA)
RNA: GGGAGUUCUACAGUCCGACGAUCUUCCCGAGCCAUGCCCUCAUCCACCAUUGACUGGUCAGGUGUGACAUCUAAGAGAACGGGAGCCUGAGCAUCAGAGUGUGCUUCAAACUGCGCGGUCCCUCCCGUGGCCUGGUCAAAGGUCAACAGAGGAUUGAGCAUCA
B10: chrX:129263551:129263552:-_ENSG00000156709_ENST00000287295|hu_hu|FALSE|FALSE (ssRNA)
RNA: GGGAGUUCUACAGUCCGACGAUCGGGCUGCAGUGGGUUUGCCAAUUCCACUGUGGGGCUUCAGUCUUCAUGAAUGUUGAAUAGUUUGGCUACUUCAUUGAGAUCUUCAUGCUGCUCACCGUCCUUAAUGAUCUUCCUUGCUAUCAACAGAGGAUUGAGCAUCA
B11: chr17:62499630:62499631:-_ENSG00000108654_ENST00000581693|hu_hu|motif|central (ssRNA)
RNA: GGGAGUUCUACAGUCCGACGAUCGAGCACCACCGUAGAUACAAGUAGACUUCAAGCGACAUGCUCUACAAUAUUCAGCAGCGGCUUGCUGCACCUGUUGGGCCAGUUCCCGAGUUGGUGCCAGCACCAAACAAAUAGGCCCAUCAACAGAGGAUUGAGCAUCA
B12: 156853296_156855257_3438_CDS_ENSMUSG00000055485_ENSMUST00000069098|mouse|control|control (ssRNA)
RNA: GGGAGUUCUACAGUCCGACGAUCCUCCCGCUCUCUCUGCAGUGCAGCCUUCCAGUCAGGCCCGGGCCUCUCACUGGCACCCUUCCCAGCCUUCAGCUCCAUCUGCGAGGCGUGGCCCUUGAGCUCUGCACGCUCUGUCUCCCACAACAGAGGAUUGAGCAUCA
B13: 64413482_64415959_3374_CDS_ENSG00000118482_ENST00000393387|human|control|control (ssRNA)
RNA: GGGAGUUCUACAGUCCGACGAUCUUUUUUUGGAGAAAGAUCAUCUACAGGUGGUGCCAUUCGACCUAUGCAGAUUUUGCAGUUGAGAUCAAAAAGAUGCUGUCUGUGUUGACUAGUGGUAUCUUUAGACAUAGAGUCAACCUCCAACAGAGGAUUGAGCAUCA
B14: 34423294_34423414_806_3pUTR_ENSMUSG00000016308_ENSMUST00000016452|mouse|control|control (ssRNA)
RNA: GGGAGUUCUACAGUCCGACGAUCGAUAACUGCUUUGAGGCUGGAGAUGAGAUACAACAAAGGGACAUAUGCAAUUGUAAUGUUUGCAAGUAACCCAGGUACAGUACAUUGGAUUUCAAAUAAUGUCUCUGAUGCUCCACAGGACAACAGAGGAUUGAGCAUCA
B15: chrX:20248820:20248821:+_ENSMUSG00000001924_ENSMUST00000001989|mus_mus|mus_mus_mus_hu_True|8_58 (ssRNA)
RNA: GGGAGUUCUACAGUCCGACGAUCGGCGAAGUCCGUCACCACAAAGUCAGGUUCUGCCAGUGAGGCCACCAAGGAUUUAAAACUAAUCUUCUUAGGUACUUUGACCUGACUGACGAUGCCUCCACGGAUGUAGUCAGAGAAGUUCAACAGAGGAUUGAGCAUCA
B16: chr2:155494191:155494192:-_ENSMUSG00000038324_ENSMUST00000041059|mus_mus|motif|central (ssRNA)
RNA: GGGAGUUCUACAGUCCGACGAUCCUCGUCACUUAUUUUUAGUUUCUGUCCCCGGAUAGAGAUGGUAGGCCUCAUAAGAAUUUCGGCAAGAAGAUCAACACCUCCAAAUAAGUCAAAAAUAUAUGUAUUUGGGUAUGUAGCUUCCAACAGAGGAUUGAGCAUCA
B17: chr14:66974463:66974464:+_ENSMUSG00000022044_ENSMUST00000074523|mus_hu|mus_mus_mus_hu_False|48_88 (ssRNA)
RNA: GGGAGUUCUACAGUCCGACGAUCUUGUAGGACGACUUAUUCAGGGGAUCAGACAAGAAGCAGGAGCAGAACAAGGACACCAGCGGGAGUUCCUUCAUCUUCUCUUUGUAGGCAGCAAGGGUCAUGUUUCUGGGAUCUGGUGGCCAACAGAGGAUUGAGCAUCA
B18: chr6:170627217:170627218:+_ENSG00000112584_ENST00000537664|hu_hu|motif|central (ssRNA)
RNA: GGGAGUUCUACAGUCCGACGAUCGUUACCUUUUUUGUCAAAGUUCUCUUUUACAGAGGUGUAGGACGAUAAGCAUUUGUACCGGAAGCUUUCAAACAUGCCCUCUGGGAUUAUGUCGUUGCCAAGGAGGCAGGCCAGAAGAGGCAACAGAGGAUUGAGCAUCA
B19: chr10:84137372:84137373:+_ENSMUSG00000034453_ENSMUST00000077175|mus_mus|motif|central (ssRNA)
RNA: GGGAGUUCUACAGUCCGACGAUCGUAAGAGAGCUCUUCUCCACAUAAUAAAUUCACAUCUUCUACUCCCAAGUUCCCAGCGGACUUAAUAAUGGGUCCAUCUUCCAUGUCAGUUGUUAUAUGUGUCAUGAGGGCCAAGUUCUUCAACAGAGGAUUGAGCAUCA
B20: chr7:7679991:7679992:-_ENSG00000106399_ENST00000396682|hu_hu|hu_hu_hu_mus_False|28_58 (ssRNA)
RNA: GGGAGUUCUACAGUCCGACGAUCUGGGAUGAAUCUUUUCCAGCUUCCCCACGAAGCACACGGGCCGGUCGAUAUACUGAGCUAGCAUGCUGGCGUUGACGCGCGCUCUGGGCAAGUGCAUUAUGUCCUCCAUGAUUCUGCCGCCAACAGAGGAUUGAGCAUCA
B21: chr1:58468927:58468928:-_ENSMUSG00000026034_ENSMUST00000148330|mus_mus|mus_mus_mus_hu_False|1_48 (ssRNA)
RNA: GGGAGUUCUACAGUCCGACGAUCAAUUACUGAAAAAGAUGUUCAUUACCUUAGCUAUGUACUUAAUGAACCAAAUUACCCAAACAACAUAAAAUGUGCAAUAUAAAAAUGUUAAGAAUUUACAAAGCUGUACAAAAAGACUGACAACAGAGGAUUGAGCAUCA
B22: chr16:32614670:32614671:+_ENSMUSG00000022797_ENSMUST00000023486|mus_mus|motif|central (ssRNA)
RNA: GGGAGUUCUACAGUCCGACGAUCUGCAGCCAGUUUCAUCUCCACAUGACUGUUAUCUCCAUCUACUUGCCGAGCAAGGCGGAACCGGGUGUAUGACAAUGGUUCCCCACCAAACAAGUUAGAGAAUGCUGAUCUGGCUUGAUCCAACAGAGGAUUGAGCAUCA

Molecular target: T1, UNK ZnF1-3
Assay: nsRBNS (natural sequence RNA bind-n-seq); RBNS binding buffer (assumed for nsRBNS): 25 mM Tris pH 7.5, 150 mM KCl, 3 mM MgCl2, 0.01% Triton X-100, 500 ug/ml BSA, 20 U/ml SUPERase-In, 4 C; UNK is unkempt and MSI1 is Musashi-1; names of the RNAs are library labels; protein concentration not given here; high values mean tight binding

Binder | binding signal
B1 | 0.975 enrichment R
B2 | 1.24 enrichment R
B3 | 0.732 enrichment R
B4 | 0.691 enrichment R
B5 | 0.931 enrichment R
B6 | 1.01 enrichment R
B7 | 0.868 enrichment R
B8 | 1.4 enrichment R
B9 | 0.852 enrichment R
B10 | 0.594 enrichment R
B11 | 1.25 enrichment R
B12 | 0.653 enrichment R
B13 | 0.84 enrichment R
B14 | 1.82 enrichment R
B15 | 1.07 enrichment R
B16 | 1.45 enrichment R
B17 | 2.09 enrichment R
B18 | 1.18 enrichment R
B19 | 1.03 enrichment R
B20 | 0.615 enrichment R
B21 | 1.59 enrichment R
B22 | 0.741 enrichment R
